This is one part of the list.

This assay deals with T1, OsWOX13 (Oryza sativa, UniProt Q5QMM3 1-267).
T1 sequence: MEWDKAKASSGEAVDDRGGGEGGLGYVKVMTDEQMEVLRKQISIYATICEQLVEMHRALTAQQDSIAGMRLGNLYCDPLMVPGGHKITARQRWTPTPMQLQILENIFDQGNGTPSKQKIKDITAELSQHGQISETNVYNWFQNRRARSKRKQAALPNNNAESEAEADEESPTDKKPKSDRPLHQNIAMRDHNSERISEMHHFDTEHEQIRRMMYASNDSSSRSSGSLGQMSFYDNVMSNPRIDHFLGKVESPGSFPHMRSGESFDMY
Nature of the assay: protein-binding microarray (RPBM); PBS, 2% BSA, 51.3 ng/ul salmon testes DNA, 50 uM zinc acetate, 200 nM TF, 25 C, 1 h; high values mean tight binding. The note with it: protein: recombinant; tags: N-terminal polyhistidine and DsRed monomer fusion (pET32a); label: CyDye5-dUTP incorporated in the synthesized complementary strand; 3' TTTTT single-stranded linker to array surface; dsDNA, one strand shown. The method in brief: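 Per-feature fluorescence intensity (arbitrary units), read on an Axon 4000B scanner, is the binding signal. Transcription factors carrying an N-terminal polyhistidine tag and DsRed fusion were expressed in E. coli BL21-CodonPlus and purified on Ni–NTA. A custom Agilent array, made double-stranded by primer extension with Cy5-dUTP and blocked with 2% BSA, was incubated with 200 nM protein in PBS, 2% BSA, salmon testes DNA and 50 µM zinc acetate at 25 °C for 1 h and then washed.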
As to “TTCGTAATTTACAGCTCATCCTTTTATAGTAGTAGTAGCTCGGAGTCACCTAGTGCAG”, the binding signal was 20600 fluorescence intensity (a.u.). On to “GTTCATGCAATAACGTTAATTTGGGACTAGATTAGTATCCCGGAGTCACCTAGTGCAG”, for which the binding signal was 7620 fluorescence intensity (a.u.). For “GCTAATATTGATATGGAAGGTTAATTATCCTCTCTCCATTCGGAGTCACCTAGTGCAG” the value was 8950 fluorescence intensity (a.u.); for “AATCACAAATTGAGATCCTAATATTTCCTCACGCCCAATACGGAGTCACCTAGTGCAG”, 7300 fluorescence intensity (a.u.).

For “ACCCTTACATTACTTCCTTAAACCATTAACATCTGAATTCCGGAGTCACCTAGTGCAG”, the binding signal was 3370 fluorescence intensity (a.u.). Consider “AGTAATTCAGATTAGCAGGAGTAACAATTGGATTAGCAAGCGGAGTCACCTAGTGCAG”, for which the binding signal is 4930 fluorescence intensity (a.u.).

Take “CCCTAAAATAACCTAATCATGTTGGAACTAGGATCAATGCCGGAGTCACCTAGTGCAG”: the binding signal was 5290 fluorescence intensity (a.u.).

Turning to “CAGTAGTAAATTACACTAGTAGACACATGTGTATGCAATGCGGAGTCACCTAGTGCAG”, the binding signal was 5040 fluorescence intensity (a.u.). Turning to “CCAATTTTATTGGAATTAATTGTTAACCCATCCTTTGATCCGGAGTCACCTAGTGCAG”, the binding signal is 24300 fluorescence intensity (a.u.). “AGCCCCTAAGCCAATCAATTAGCAGGCATCTTTACTCCTACGGAGTCACCTAGTGCAG”: the binding signal is 18500 fluorescence intensity (a.u.). Consider “GCCAATAACAAATCACAGGAAATCCGGCGAGATTTCCGAACGGAGTCACCTAGTGCAG”, for which the binding signal was 3820 fluorescence intensity (a.u.). On to “CGACTTTCATCAAAGTTAAATTATTTCAAGTTTGATTAAGCGGAGTCACCTAGTGCAG”, for which the binding signal is 3960 fluorescence intensity (a.u.).

With “AGCTTCATCTGATTGGATCTGAAAAGGGACATGTTCTGGACGGAGTCACCTAGTGCAG”, the binding signal was 29400 fluorescence intensity (a.u.). On to “TGTTAAATGGCCAGTGATGAATTGCTCAATAAGAACAGATCGGAGTCACCTAGTGCAG”, for which the binding signal was 16400 fluorescence intensity (a.u.).

Turning to “CAGATTGATCAGACCCTTCAATTAAGCCCACGATGGGCCTCGGAGTCACCTAGTGCAG”, the binding signal is 46900 fluorescence intensity (a.u.). For “ACGACACATTGACAGCCACCACTCACCTGCTGATAACCAGCGGAGTCACCTAGTGCAG”, the binding signal is 5250 fluorescence intensity (a.u.). On to “AAGGAACTTAGCATCAATTATCAATTATTAAGAGAGAAGACGGAGTCACCTAGTGCAG”, for which the binding signal was 4280 fluorescence intensity (a.u.).

Regarding “ATGTCGACATACGTAATTAATGTACACTCAGAACATGTCGCGGAGTCACCTAGTGCAG”, the binding signal is 4870 fluorescence intensity (a.u.). In the case of “ACTAATTATAAATATTAACCGTAGACTATTAATAAAACCCCGGAGTCACCTAGTGCAG”, the binding signal is 35000 fluorescence intensity (a.u.). Turning to “TATTGTAATTAAATCTTTACAATAAGAATCACATGATTATCGGAGTCACCTAGTGCAG”, the binding signal is 3150 fluorescence intensity (a.u.).

Turning to “GAACTAAATCACAAAGCAAATCAGTAGCTAGACTGCAAAACGGAGTCACCTAGTGCAG”, the binding signal was 3780 fluorescence intensity (a.u.). As for “ATAATTTCAAATTTTGGTCGTGGCTGATAAGACCAACGAGCGGAGTCACCTAGTGCAG”, the binding signal was 3560 fluorescence intensity (a.u.).

On to “AACTAGATGGCAACTGATTTCTGGGACAAAATCGCTTCTACGGAGTCACCTAGTGCAG”, for which the binding signal is 7500 fluorescence intensity (a.u.). With “TTGTTGACTCAGTTTGATAGGTCGTTTTACTATATTACTGCGGAGTCACCTAGTGCAG”, the binding signal was 3540 fluorescence intensity (a.u.). To “GATAGATGACGTATTATTAGACAGTGATGCGCTTGTGGTGCGGAGTCACCTAGTGCAG” belongs 5600 fluorescence intensity (a.u.); to “GTTGGGACTGCCCTAATTTACACCTTGAAAGATGCAATTCCGGAGTCACCTAGTGCAG”, 7570 fluorescence intensity (a.u.); to “CACTAATTAACGAAAAGAAACGCAGAGTTCCAATTAAGGACGGAGTCACCTAGTGCAG”, 18600 fluorescence intensity (a.u.). With “CAATGATTATTGCAAAAGTACTCCAAGAAGTAAAGTGAACCGGAGTCACCTAGTGCAG”, the binding signal is 8060 fluorescence intensity (a.u.).

Take “ATTATCATAATTTGAAATTCAAATTCAAATTATTGAAACACGGAGTCACCTAGTGCAG”: the binding signal was 17300 fluorescence intensity (a.u.). To “AATTTTGATTTGATTCTGCTGCCTCCGGCGCGCCCCTGATCGGAGTCACCTAGTGCAG” belongs 16700 fluorescence intensity (a.u.); to “CAAACAATCACGAGGAGCAGAGCAGGCAGCCGATTCGACACGGAGTCACCTAGTGCAG”, 4410 fluorescence intensity (a.u.); to “GTTGATTAATCGCTGGTTAATTTTAATCAAGCGTCTCATTCGGAGTCACCTAGTGCAG”, 44000 fluorescence intensity (a.u.). “ACCAAATTAGTTTCATTAAATTTAATATTAAATATATTTTCGGAGTCACCTAGTGCAG”: the binding signal is 22400 fluorescence intensity (a.u.). With “TAATCAAATTGGGAATTTGTTAATGAATAATGTAATTAATCGGAGTCACCTAGTGCAG”, the binding signal is 19100 fluorescence intensity (a.u.). For the sequence “TGTCGTCAAAATTTGATGGAATTCACACGAATTTAGCAACCGGAGTCACCTAGTGCAG”, the binding signal is 5150 fluorescence intensity (a.u.).

On to “GAGATTGTTGATAGATCTGCAGGTAAGTGGTACTGTCCCACGGAGTCACCTAGTGCAG”, for which the binding signal was 10000 fluorescence intensity (a.u.). In the case of “GATCGAAATTGCATGATTTTGTTTAGTCTAGGAGTAAGGACGGAGTCACCTAGTGCAG”, the binding signal was 5890 fluorescence intensity (a.u.). For “CAGATTGAGAGTTCGGGAGGAAAAGGAACAGTACGTGGGCCGGAGTCACCTAGTGCAG” the value was 9740 fluorescence intensity (a.u.); for “GAGAAATGTTAATTTATCTGTTTATTTATTCGCTCTTCAGCGGAGTCACCTAGTGCAG”, 19100 fluorescence intensity (a.u.); for “CAAGAACATGATTGTCACTTACCTTGCCTTCCTCAATCTTCGGAGTCACCTAGTGCAG”, 20700 fluorescence intensity (a.u.).

For “CACATTGATTGGCGGAGATCACCATACGAAATGATGAGATCGGAGTCACCTAGTGCAG”, the binding signal is 50400 fluorescence intensity (a.u.). In the case of “CCCTCAAAATTACATTAACACCCCTGCCCAGCAGCTCAGCCGGAGTCACCTAGTGCAG”, the binding signal is 3260 fluorescence intensity (a.u.).
